Results reported in the supplement of paper PMC8728848.
The other results are listed elsewhere or left out.

Assays:
Experiment in all cases: glycan array binding signal (z-score within array); higher = stronger binding
Settings in all cases: glycan notation: IUPAC condensed, linker removed; mutation: E41A
[1] = molecular target: Fuc(a1-2)Gal6S(b1-3)GlcNAc
Summary of the method: (§1)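 Negative Z-scores can be read as non-binding. The Z-score is calculated within each array and then averaged across arrays of one protein sequence at different concentrations or buffers and across linkers. Arrays, 3228 in all, were curated from the Consortium for Functional Glycomics database and kept only where the protein sequence was available.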

[2] = molecular target: Fuc(a1-2)Gal6S(b1-3)GlcNAc6S
Summary of the method: as §1

Fuc(a1-2)Gal6S(b1-4)Glc = molecular target: Fuc(a1-2)Gal6S(b1-4)Glc
Summary of the method: as §1

[3] = molecular target: Fuc(a1-2)Gal6S(b1-4)Glc6S
Summary of the method: as §1

Fuc(a1-2)[Gal(a1-3)]Gal = molecular target: Fuc(a1-2)[Gal(a1-3)]Gal
Summary of the method: as §1

[4] = molecular target: Fuc(a1-2)[Gal(a1-3)]Gal(b1-3)GalNAc
Summary of the method: as §1

[5] = molecular target: Fuc(a1-2)[Gal(a1-3)]Gal(b1-3)GalNAc(b1-3)Gal(a1-4)Gal(b1-4)Glc
Summary of the method: as §1

[6] = molecular target: Fuc(a1-2)[Gal(a1-3)]Gal(b1-3)GlcNAc
Summary of the method: as §1

[7] = molecular target: Fuc(a1-2)[Gal(a1-3)]Gal(b1-3)GlcNAc(b1-2)Man(a1-3)[Fuc(a1-2)[Gal(a1-3)]Gal(b1-3)GlcNAc(b1-2)Man(a1-6)]Man(b1-4)GlcNAc(b1-4)GlcNAc
Summary of the method: as §1

[8] = molecular target: Fuc(a1-2)[Gal(a1-3)]Gal(b1-3)GlcNAc(b1-2)Man(a1-3)[Fuc(a1-2)[Gal(a1-3)]Gal(b1-3)GlcNAc(b1-2)Man(a1-6)]Man(b1-4)GlcNAc(b1-4)[Fuc(a1-6)]GlcNAc
Summary of the method: as §1

[9] = molecular target: Fuc(a1-2)[Gal(a1-3)]Gal(b1-3)GlcNAc(b1-3)GalNAc
Summary of the method: as §1

[10] = molecular target: Fuc(a1-2)[Gal(a1-3)]Gal(b1-3)GlcNAc(b1-6)GalNAc
Summary of the method: as §1

[11] = molecular target: Fuc(a1-2)[Gal(a1-3)]Gal(b1-4)Glc
Summary of the method: as §1

[12] = molecular target: Fuc(a1-2)[Gal(a1-3)]Gal(b1-4)GlcNAc
Summary of the method: as §1

[13] = molecular target: Fuc(a1-2)[Gal(a1-3)]Gal(b1-4)GlcNAc(b1-2)Man
Summary of the method: as §1

[14] = molecular target: Fuc(a1-2)[Gal(a1-3)]Gal(b1-4)GlcNAc(b1-2)Man(a1-3)[Fuc(a1-2)[Gal(a1-3)]Gal(b1-4)GlcNAc(b1-2)Man(a1-6)]Man(b1-4)GlcNAc(b1-4)GlcNAc
Summary of the method: as §1

[15] = molecular target: Fuc(a1-2)[Gal(a1-3)]Gal(b1-4)GlcNAc(b1-2)Man(a1-3)[Fuc(a1-2)[Gal(a1-3)]Gal(b1-4)GlcNAc(b1-2)Man(a1-6)]Man(b1-4)GlcNAc(b1-4)[Fuc(a1-6)]GlcNAc
Summary of the method: as §1

[16] = molecular target: Fuc(a1-2)[Gal(a1-3)]Gal(b1-4)GlcNAc(b1-3)GalNAc
Summary of the method: as §1

[17] = molecular target: Fuc(a1-2)[Gal(a1-3)]Gal(b1-4)GlcNAc(b1-3)[Fuc(a1-2)[Gal(a1-3)]Gal(b1-4)GlcNAc(b1-6)]GalNAc
Summary of the method: as §1

[18] = molecular target: Fuc(a1-2)[Gal(a1-3)]Gal(b1-4)GlcNAc(b1-6)GalNAc
Summary of the method: as §1

[19] = molecular target: Fuc(a1-2)[Gal(a1-3)]Gal(b1-4)[Fuc(a1-3)]Glc
Summary of the method: as §1

[20] = molecular target: Fuc(a1-2)[Gal(a1-3)]Gal(b1-4)[Fuc(a1-3)]GlcNAc
Summary of the method: as §1

[21] = molecular target: Fuc(a1-2)[Gal(a1-3)]Gal(b1-4)[Fuc(a1-3)]GlcNAc(b1-3)GalNAc
Summary of the method: as §1

[22] = molecular target: Fuc(a1-2)[Gal(a1-4)]Gal(b1-4)GlcNAc
Summary of the method: as §1

[23] = molecular target: Fuc(a1-2)[GalNAc(a1-3)]Gal
Summary of the method: as §1

[24] = molecular target: Fuc(a1-2)[GalNAc(a1-3)]Gal(b1-3)GalNAc(a1-3)[Fuc(a1-2)]Gal(b1-4)GlcNAc
Summary of the method: as §1

[25] = molecular target: Fuc(a1-2)[GalNAc(a1-3)]Gal(b1-3)GalNAc(b1-3)Gal(a1-4)Gal(b1-4)Glc
Summary of the method: as §1

[26] = molecular target: Fuc(a1-2)[GalNAc(a1-3)]Gal(b1-3)GlcNAc
Summary of the method: as §1

[27] = molecular target: Fuc(a1-2)[GalNAc(a1-3)]Gal(b1-3)GlcNAc(b1-2)Man(a1-3)[Fuc(a1-2)[GalNAc(a1-3)]Gal(b1-3)GlcNAc(b1-2)Man(a1-6)]Man(b1-4)GlcNAc(b1-4)GlcNAc
Summary of the method: as §1

[28] = molecular target: Fuc(a1-2)[GalNAc(a1-3)]Gal(b1-3)GlcNAc(b1-2)Man(a1-3)[Fuc(a1-2)[GalNAc(a1-3)]Gal(b1-3)GlcNAc(b1-2)Man(a1-6)]Man(b1-4)GlcNAc(b1-4)[Fuc(a1-6)]GlcNAc
Summary of the method: as §1

[29] = molecular target: Fuc(a1-2)[GalNAc(a1-3)]Gal(b1-3)GlcNAc(b1-3)GalNAc
Summary of the method: as §1

[30] = molecular target: Fuc(a1-2)[GalNAc(a1-3)]Gal(b1-3)GlcNAc(b1-6)GalNAc
Summary of the method: as §1

[31] = molecular target: Fuc(a1-2)[GalNAc(a1-3)]Gal(b1-4)Glc
Summary of the method: as §1

[32] = molecular target: Fuc(a1-2)[GalNAc(a1-3)]Gal(b1-4)GlcNAc
Summary of the method: as §1

[33] = molecular target: Fuc(a1-2)[GalNAc(a1-3)]Gal(b1-4)GlcNAc(b1-2)Man
Summary of the method: as §1

[34] = molecular target: Fuc(a1-2)[GalNAc(a1-3)]Gal(b1-4)GlcNAc(b1-2)Man(a1-3)[Fuc(a1-2)[GalNAc(a1-3)]Gal(b1-4)GlcNAc(b1-2)Man(a1-6)]Man(b1-4)GlcNAc(b1-4)GlcNAc
Summary of the method: as §1

[35] = molecular target: Fuc(a1-2)[GalNAc(a1-3)]Gal(b1-4)GlcNAc(b1-2)Man(a1-3)[Fuc(a1-2)[GalNAc(a1-3)]Gal(b1-4)GlcNAc(b1-2)Man(a1-6)]Man(b1-4)GlcNAc(b1-4)[Fuc(a1-6)]GlcNAc
Summary of the method: as §1

[36] = molecular target: Fuc(a1-2)[GalNAc(a1-3)]Gal(b1-4)GlcNAc(b1-3)Gal(b1-4)GlcNAc
Summary of the method: as §1

[37] = molecular target: Fuc(a1-2)[GalNAc(a1-3)]Gal(b1-4)GlcNAc(b1-3)Gal(b1-4)GlcNAc(b1-3)Gal(b1-4)GlcNAc
Summary of the method: as §1

[38] = molecular target: Fuc(a1-2)[GalNAc(a1-3)]Gal(b1-4)GlcNAc(b1-3)GalNAc
Summary of the method: as §1

[39] = molecular target: Fuc(a1-2)[GalNAc(a1-3)]Gal(b1-4)GlcNAc(b1-3)[Fuc(a1-2)[GalNAc(a1-3)]Gal(b1-4)GlcNAc(b1-6)]GalNAc
Summary of the method: as §1

[40] = molecular target: Fuc(a1-2)[GalNAc(a1-3)]Gal(b1-4)GlcNAc(b1-6)GalNAc
Summary of the method: as §1

[41] = molecular target: Fuc(a1-2)[GalNAc(a1-3)]Gal(b1-4)[Fuc(a1-3)]GlcNAc
Summary of the method: as §1

[42] = molecular target: Fuc(a1-2)[GalNAc(a1-3)]Gal(b1-4)[Fuc(a1-3)]GlcNAc(b1-3)GalNAc
Summary of the method: as §1

[43] = molecular target: Fuc(a1-2)[GalNAc(a1-4)]Gal(b1-4)GlcNAc
Summary of the method: as §1

B1: CVN-E41G (protein)
chain: MHHHHHHENLYFQSGNFSQACYNSAIQGSVLTSTCIRTNGGYNTSSIDLNSVIANVDGSLKWQGSNFIETCRNTQLAGSSELAAECKTRAQQFVSTKINLDDHIAAIDGTLKYE
glycan array binding signal (z-score) [1]: -0.059 | glycan array binding signal (z-score) [2]: 0.125 | glycan array binding signal (z-score) (Fuc(a1-2)Gal6S(b1-4)Glc): -0.221 | glycan array binding signal (z-score) [3]: 0.18 | glycan array binding signal (z-score) (Fuc(a1-2)[Gal(a1-3)]Gal): -0.234 | glycan array binding signal (z-score) [4]: -0.12 | glycan array binding signal (z-score) [5]: -0.239 | glycan array binding signal (z-score) [6]: -0.205 | glycan array binding signal (z-score) [7]: 0.579 | glycan array binding signal (z-score) [8]: 0.64 | glycan array binding signal (z-score) [9]: -0.2 | glycan array binding signal (z-score) [10]: -0.21 | glycan array binding signal (z-score) [11]: -0.04 | glycan array binding signal (z-score) [12]: -0.223 | glycan array binding signal (z-score) [13]: -0.085 | glycan array binding signal (z-score) [14]: -0.072 | glycan array binding signal (z-score) [15]: 0.501 | glycan array binding signal (z-score) [16]: -0.234 | glycan array binding signal (z-score) [17]: -0.139 | glycan array binding signal (z-score) [18]: -0.201 | glycan array binding signal (z-score) [19]: -0.145 | glycan array binding signal (z-score) [20]: -0.15 | glycan array binding signal (z-score) [21]: -0.211 | glycan array binding signal (z-score) [22]: -0.175 | glycan array binding signal (z-score) [23]: -0.219 | glycan array binding signal (z-score) [24]: -0.202 | glycan array binding signal (z-score) [25]: -0.265 | glycan array binding signal (z-score) [26]: -0.168 | glycan array binding signal (z-score) [27]: 0.063 | glycan array binding signal (z-score) [28]: 0.724 | glycan array binding signal (z-score) [29]: -0.034 | glycan array binding signal (z-score) [30]: -0.189 | glycan array binding signal (z-score) [31]: -0.206 | glycan array binding signal (z-score) [32]: -0.228 | glycan array binding signal (z-score) [33]: -0.133 | glycan array binding signal (z-score) [34]: -0.07 | glycan array binding signal (z-score) [35]: 1.61 | glycan array binding signal (z-score) [36]: -0.206 | glycan array binding signal (z-score) [37]: -0.123 | glycan array binding signal (z-score) [38]: -0.218 | glycan array binding signal (z-score) [39]: -0.169 | glycan array binding signal (z-score) [40]: -0.149 | glycan array binding signal (z-score) [41]: -0.183 | glycan array binding signal (z-score) [42]: -0.167 | glycan array binding signal (z-score) [43]: -0.221
